# Measured values taken from PubChem BioAssay AID485294 (National Center for Advancing Translational Sciences (NCATS), 2010).
# The campaign covered roughly 370,000 compounds. About 150 (0.041%) were called active. The inconclusive results got no clear call from the source; some entries with a clear call stand among them for comparison. The call rests on the fitted dose curve; in most records, active means well fitted inhibition curve with a large enough effect; inconclusive means small, poorly fitted or top-dose-only effect; inactive means flat fitted curve, though single readings scatter. Potencies of inconclusive entries are left out as doubtful fits.
# Target: Beta-lactamase (Escherichia coli (strain K12)) (UniProt P00811)
# Assay: qHTS Inhibitors of AmpC Beta-Lactamase (assay with detergent); further: nearly all actives have a fitted effect of over 25% in size
# Conditions: AmpC hydrolysis of nitrocefin, absorbance 480 nm, 0.01% Triton; series mostly up to 114 µM
# Summary of the method: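 20 mM phosphate pH 7.0 + 0.01% (detergent screen) or 0.0001% Triton X-100; 5.3 nM AmpC reagent; cpd preinc 15 min RT; nitrocefin (800 uM stock) to start; A480 q20 s × 4 min; Activity was normalised to no-enzyme and no-compound control wells.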
# Potency means the concentration at half of the fitted maximal effect; tags describe the fitted curve by direction and shape.
# Chain of UniProt P00811 (P00811 whole entry, looked up): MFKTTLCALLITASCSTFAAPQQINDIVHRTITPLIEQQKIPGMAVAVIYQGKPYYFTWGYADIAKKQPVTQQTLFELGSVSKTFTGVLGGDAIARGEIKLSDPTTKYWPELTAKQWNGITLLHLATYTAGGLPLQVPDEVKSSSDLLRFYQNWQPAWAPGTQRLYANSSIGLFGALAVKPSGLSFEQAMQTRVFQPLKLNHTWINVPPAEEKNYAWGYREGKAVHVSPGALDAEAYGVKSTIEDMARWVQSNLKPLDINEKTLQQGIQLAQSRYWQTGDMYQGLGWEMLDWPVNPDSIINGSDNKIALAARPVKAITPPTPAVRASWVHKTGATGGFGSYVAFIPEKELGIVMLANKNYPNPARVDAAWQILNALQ
row,Structure (SMILES),Potency
1,COc1cc(NC(=O)C/C(C)=N/NC(=O)C(=O)NCCO)c(OC)cc1Cl,inactive
2,COc1cccc2sc(NNC(=O)COc3ccccc3)nc12,inactive
3,Cc1ccc(Cn2nc(C)c(NC(=O)CCCn3nc([N+](=O)[O-])c(Cl)c3C)c2C)cc1,"inconclusive [inhibitor, full curve, poor fit]"
4,COCCNC(=O)C1CCN(Cc2cccc(OCc3ccccc3)c2)CC1,"inconclusive [inhibitor, full curve]"
5,CN(C)c1ccc(-c2noc(C3CC(=O)N(c4ccc5c(c4)OCCO5)C3)n2)cc1 (stereo not given),inactive
6,CCn1cc(CN2CCC(C(=O)Nc3ccc(Oc4cccnc4)cc3)CC2)c(C)n1,inactive
7,CCN(CC(=O)Nc1c(F)cccc1F)C(=O)c1ccc(OCc2c(C)noc2C)cc1,"inconclusive [inhibitor, full curve, poor fit]"
8,O=C(Cc1ccsc1)Nc1cc(F)ccc1F,"inconclusive [inhibitor, full curve]"
9,Cc1ccc(NC(=O)COc2ccc3c(c2)CCC3)nc1,"inconclusive [inhibitor, full curve, poor fit]"
10,Cc1[nH]nc2c1C(c1ccsc1C)C(C#N)=C(N)O2 (stereo not given),"inconclusive [inhibitor, full curve, poor fit]"
11,COc1cccc(C(=O)CN2CCN(S(=O)(=O)c3ccc(Br)cc3)CC2)c1,"inconclusive [inhibitor, single point]"
12,Cc1c([N+](=O)[O-])c(C(=O)N2CCCC2)nn1C,inactive
13,Cc1c2cn[nH]c(=O)c2c(C)n1-c1ccccc1,inactive
14,COc1ccc(-c2cccc(NC(=O)c3ccc4c(c3)OCO4)c2)nn1,inactive
15,CCc1ccc(S(=O)(=O)c2nnn3c2nc(NCc2cccc(OC)c2)c2cc(Cl)ccc23)cc1,inactive
16,CC(=O)Nc1cccc(NC(=O)c2ccc3c(c2)CCN3S(=O)(=O)c2ccccc2)c1,"inconclusive [inhibitor, full curve, poor fit]"
17,CN1CCN(C(=O)COc2ccc(S(=O)(=O)Nc3ccc(F)cc3)cc2)CC1,"inconclusive [inhibitor, single point]"
18,CC(OC(=O)c1ccc(OCC2CCCO2)cc1)C(=O)N(C)Cc1ccccc1 (stereo not given),inactive
19,Cc1cc(C)c(S(=O)(=O)c2ccccc2)c(N(C)C)n1,"inconclusive [inhibitor, full curve, poor fit]"
20,CCN1CCCC1CNC(=O)c1cc2c(=O)n(C)c3ccccc3c2n1C (stereo not given),"inconclusive [inhibitor, full curve, poor fit]"
